{
  "source": "PubChem BioAssay AID686978",
  "about": "(National Center for Advancing Translational Sciences (NCATS), 2013)",
  "note": "The campaign covered roughly 420,000 compounds. About 64,000 (15%) were called active. Inconclusive results, whose numbers are uncertain, are shown with a selection of clear calls. The call rests on the fitted dose curve; in most records, active means well fitted inhibition curve with a large enough effect; inconclusive means small, poorly fitted or top-dose-only effect; inactive means flat fitted curve, though single readings scatter. Potencies of inconclusive entries are left out as doubtful fits. On the % scale 0 is the no-effect control and ±100 the full control effect; potency means the concentration at half of the fitted maximal effect; tags describe the fitted curve by direction and shape.",
  "data": [
    {"test": "qHTS for Inhibitors of human tyrosyl-DNA phosphodiesterase 1 (TDP1): qHTS in cells in absence of CPT; further: nearly all actives have a fitted effect of over 55% in size", "settings": "DT40 Tdp1-/- hTDP1 cells, no CPT, ATP luminescence, 48 h; activity change, negative = growth inhibition: at 46.2 µM (top of the series) unless noted", "in_short": "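Luminescent ATP content (CellTiter-Glo) served as the growth readout. Knockout chicken DT40 cells expressing human TDP1 were exposed to compounds without camptothecin for a minimum 48 hr at 37 °C.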", "values": [
      {"smiles": "CC(C)(C)c1ccc(-c2nc(-c3ccncc3)no2)cc1", "Potency": "active: 16.4 µM"},
      {"smiles": "Cc1cc(C)c(S(=O)(=O)NCC(c2ccco2)N2CCc3ccccc3C2)c(C)c1", "note": "(configuration not stated)", "Potency": "inconclusive [inhibitor, single point]"},
      {"smiles": "CN1CCN(c2nc(-c3ccc(N(C)C)cc3)nc3ccccc23)CC1", "Potency": "inconclusive [inhibitor, single point]"},
      {"smiles": "Cc1cccc(N2C(=O)CC(Sc3nc(C)cc(C)n3)C2=O)c1", "note": "(configuration not stated)", "Potency": "inconclusive [inhibitor, single point]"},
      {"smiles": "O=C(NC1CCCCC1)c1cc(-c2ccco2)on1", "Potency": "inconclusive [inhibitor, partial curve]"},
      {"smiles": "CCOc1ccccc1CNS(=O)(=O)c1cnc(N)nc1", "Potency": "inconclusive [inhibitor, partial curve, poor fit]"},
      {"smiles": "Cn1c(N)c(C(=O)COC(=O)c2cc(S(=O)(=O)N3CCCCC3)ccc2Cl)c(=O)n(C)c1=O", "Potency": "inconclusive [inhibitor, single point]"},
      {"smiles": "Cc1ccc(C(=O)Nc2ccc(Cc3ccncc3)cc2)cc1[N+](=O)[O-]", "Potency": "active: 20.6 µM"},
      {"smiles": "COc1ccccc1Cn1c(CNS(=O)(=O)c2ccc(Cl)s2)nc2cccnc21", "Potency": "inconclusive [inhibitor, single point]"},
      {"smiles": "OCCCNC(c1ccccc1)c1ccc(O)cc1", "note": "(configuration not stated)", "activity change, negative = growth inhibition": "inactive: -10%"},
      {"smiles": "Nc1ncnc2c1[nH]c(=O)n2C1CC(O)C(CO)O1", "note": "(configuration not stated)", "activity change, negative = growth inhibition": "inactive: -0.413%"},
      {"smiles": "CC(=O)c1cccc(NC(=O)Cn2cnc3c2c(=O)n(C)c(=O)n3C)c1", "Potency": "inconclusive [inhibitor, partial curve, poor fit]"},
      {"smiles": "CC1=NC(C)(C)Cc2ccccc21", "activity change, negative = growth inhibition": "inactive: -8.98%"},
      {"smiles": "CC(=O)c1ccc(N2CCN(C(=S)NCc3ccco3)CC2)cc1", "Potency": "inconclusive [inhibitor, single point]"},
      {"smiles": "CC(Sc1cccc[n+]1[O-])C(=O)Nc1ccc([N+](=O)[O-])cc1Cl", "note": "(configuration not stated)", "Potency": "inconclusive [inhibitor, single point]"},
      {"smiles": "CCC(=O)OCc1c(C(F)(F)F)nn(C)c1Oc1cccc(C(F)(F)F)c1", "activity change, negative = growth inhibition": "inactive: 16.5%"},
      {"smiles": "CCN(CC(=O)Nc1ccc(OC)cc1)CC(=O)Nc1cccc(C#N)c1", "activity change, negative = growth inhibition": "inactive: 16.3%"},
      {"smiles": "CC(Oc1ccc2ccccc2c1)C(=O)NNC(=O)Nc1ccccc1", "note": "(configuration not stated)", "activity change, negative = growth inhibition": "inactive: -14.8%"},
      {"smiles": "Cc1ccc(C)c(NC(=O)COC(=O)Cn2c(C)csc2=O)c1", "activity change, negative = growth inhibition": "inactive: -18.8%"},
      {"smiles": "CC(=O)C1=C(C)NC(SCC(N)=O)=C(C#N)C1c1cccnc1", "note": "(configuration not stated)", "activity change, negative = growth inhibition": "inactive: 9.08%"},
      {"smiles": "CCC(=O)N1CCc2cc(Br)cc(S(=O)(=O)N3CCCC(C(=O)Nc4ccc(CC)cc4)C3)c21", "note": "(configuration not stated)", "Potency": "inconclusive [inhibitor, single point]"},
      {"smiles": "Cc1ccc(OCCCn2ccnc2)cc1C", "Potency": "active: 18.4 µM"},
      {"smiles": "COCCCNC(=O)c1cc2c(=O)n3cccc(C)c3nc2n(C(C)C)c1=N", "Potency": "inconclusive [inhibitor, partial curve, poor fit]"},
      {"smiles": "O=C1C2C3C=CC(C3)C2C(=O)N1Nc1c(Cl)cc(Cl)cc1Cl", "note": "(configuration not stated)", "activity change, negative = growth inhibition": "inactive: 5.54%"},
      {"smiles": "CCOC(=O)N1CCC(NC(=O)c2cccs2)CC1", "activity change, negative = growth inhibition": "inactive: -5.76%"},
      {"smiles": "CCOc1cccc(/C=C2\\NC(=S)N(c3ccccc3)C2=O)c1O", "Potency": "inconclusive [inhibitor, partial curve]"},
      {"smiles": "CCN1CCN(c2ccc(S(=O)(=O)N3CCCCC3)cc2NC(=O)c2ccc(F)cc2)CC1", "Potency": "active: 20.6 µM"},
      {"smiles": "O=C(NC(=S)/C(=C1\\CCCCCN1)[N+](=O)[O-])c1ccccc1", "activity change, negative = growth inhibition": "inactive: 3.15%"},
      {"smiles": "COc1ccc(Cc2nnc(SCC(=O)c3ccc4c(c3)OCO4)o2)cc1", "Potency": "inconclusive [inhibitor, single point]"},
      {"smiles": "CCOC(=O)c1c(C)[nH]c(C)c1S(=O)(=O)N1CCCC(C(=O)N2CCN(c3ccc(Cl)cc3)CC2)C1", "note": "(configuration not stated)", "Potency": "inconclusive [inhibitor, single point]"},
      {"smiles": "Oc1ccc(C2Nc3cccc4cccc(c34)N2)cc1", "Potency": "inconclusive [inhibitor, single point]"},
      {"smiles": "CCCCn1c(=O)[nH]c(=O)c2c1nc(COc1ccc(C#N)cc1)n2CCC", "Potency": "inconclusive [inhibitor, partial curve, poor fit]"},
      {"smiles": "O=C(NCC1COc2ccccc2O1)c1ccc(NC(=O)C(c2ccccc2)c2ccccc2)cc1", "note": "(configuration not stated)", "Potency": "active: 9.2 µM"},
      {"smiles": "CC1(OC(=O)C2CCCC2)C(=O)C=C2C=C(c3ccsc3)N(Cc3ccco3)C=C2C1=O", "note": "(configuration not stated)", "Potency": "inconclusive [inhibitor, single point]"},
      {"smiles": "COc1ccc(C2CC(=O)c3cnc(Nc4cc(C)cc(C)c4)nc3C2)cc1", "note": "(configuration not stated)", "Potency": "inconclusive [inhibitor, single point]"},
      {"smiles": "Cc1cc(C(=O)CS(=O)(=O)c2ccc(F)cc2)cc(C)c1O", "activity change, negative = growth inhibition": "inactive: -6.54%"},
      {"smiles": "COc1ccc(/C=N/NC(=O)Cc2csc(Nc3cccc(C(F)(F)F)c3)n2)c(OC)c1", "Potency": "inconclusive [inhibitor, single point]"},
      {"smiles": "COCc1[nH]nc2c1C(c1ccc(OC)c(OC)c1)C(C#N)=C(N)O2", "note": "(configuration not stated)", "activity change, negative = growth inhibition": "inactive: -15.5%"},
      {"smiles": "Nc1sc(-c2ccccc2)n[n+]1Cc1cccc2cccnc12", "Potency": "active: 23.1 µM"},
      {"smiles": "O=C(CN1CCN(Cc2ccc(Cl)cc2)CC1)N/N=C/c1ccncc1", "activity change, negative = growth inhibition": "inconclusive: -36.5% [inhibitor]"},
      {"smiles": "O=C(NNC1=C(C(=O)C(F)(F)F)CCC1)c1ccc(Cl)cc1", "Potency": "inconclusive [inhibitor, single point]"},
      {"smiles": "O=C(c1cc(-c2ccccc2)nc2ccccc12)N1CCCc2ccccc21", "Potency": "active: 23.1 µM"},
      {"smiles": "CC1CCN(C(=O)COC(=O)Cn2cnc3ccccc32)CC1", "activity change, negative = growth inhibition": "inactive: -15.1%"},
      {"smiles": "C[N+]1(CCC(=O)c2ccccc2)CCCCC1", "Potency": "active: 2.59 µM"},
      {"smiles": "CCc1ccc(NC(=O)C(C)OC(=O)CCN2C(=O)C3CC=CCC3C2=O)cc1", "note": "(configuration not stated)", "Potency": "inconclusive [inhibitor, single point]"},
      {"smiles": "COc1ccc2c(c1)/C(=C/c1cc(OC)c(OC)c(OC)c1)C(=O)N2", "Potency": "active: 0.731 µM"},
      {"smiles": "CN(Cc1ccc(Cl)c(Cl)c1)C(C(=O)NCc1ccccc1)c1ccc(C(F)(F)F)cc1", "note": "(configuration not stated)", "Potency": "inconclusive [inhibitor, single point]"},
      {"smiles": "CCNc1nc(OCC)nc(N2CCC(Cc3ccccc3)CC2)n1", "Potency": "inconclusive [inhibitor, partial curve]"},
      {"smiles": "CCOC(=O)C1(C(=O)OCC)CC1c1ccccc1", "note": "(configuration not stated)", "activity change, negative = growth inhibition": "inactive: -22.9%"},
      {"smiles": "CCOc1ccccc1N1CCN(C(=O)c2c(-c3c(F)cccc3Cl)noc2C)CC1", "Potency": "inconclusive [inhibitor, single point]"},
      {"smiles": "COc1cc(OC)cc(C(=O)NC(=S)N(Cc2ccccc2)C(C)C)c1", "Potency": "inconclusive [inhibitor, single point]"},
      {"smiles": "CCOc1cc(/C=N/NC(N)=O)cc(Br)c1OCC(=O)Nc1cccc2ccccc12", "activity change, negative = growth inhibition": "inconclusive: -32.6% [inhibitor]"},
      {"smiles": "COc1ccccc1CCC(=O)Nc1cc(S(=O)(=O)N2CCOCC2)ccc1N1CCCC1", "Potency": "active: 29.1 µM"},
      {"smiles": "Cc1nnc(N2CCN(c3ccccc3)CC2)c2c1nnn2Cc1ccc(F)cc1", "Potency": "inconclusive [inhibitor, single point]"},
      {"smiles": "CCc1ccc(-n2c(Cc3ccccc3)n[nH]c2=S)cc1", "Potency": "inconclusive [inhibitor, single point]"},
      {"smiles": "COC(=O)c1ccc(CNC(=O)CC[C@H]2O[C@@H](n3cc(C)c(=O)[nH]c3=O)C[C@@H]2O)cc1", "activity change, negative = growth inhibition": "inactive: 4.53%"},
      {"smiles": "COc1ccc(Cl)cc1NC(=O)C1CCCN(c2cc(C)nc3ncnn23)C1", "note": "(configuration not stated)", "Potency": "inconclusive [inhibitor, single point]"},
      {"smiles": "O=C(COC(=O)CCc1ccc(S(=O)(=O)N2CCOCC2)cc1)NC1CCCC1", "activity change, negative = growth inhibition": "inactive: -10.2%"},
      {"smiles": "O=C(NCCCN1CCCCCC1)C1CC(=O)N(C2CCCC2)C1", "note": "(configuration not stated)", "activity change, negative = growth inhibition": "inactive: -3.95%"},
      {"smiles": "C[C@@H]1CN([C@H](C)CO)C(=O)c2c(c3ccccc3n2C)-c2ccccc2CO[C@H]1CN(C)C(=O)Nc1ccccc1", "Potency": "inconclusive [inhibitor, single point]"},
      {"smiles": "CNC(=S)NNC(=O)CSCc1c(Cl)cccc1Cl", "activity change, negative = growth inhibition": "inconclusive: -31.3% [inhibitor]"},
      {"smiles": "COc1ccc(C)cc1NC(=O)C(=O)NNC(=O)c1ccco1", "Potency": "inconclusive [inhibitor, single point]"},
      {"smiles": "Cc1ccc(N2C(=O)C3CCCN3C2=S)c(C)c1", "note": "(configuration not stated)", "Potency": "inconclusive [inhibitor, single point]"},
      {"smiles": "COC(=O)c1ccc2c(=O)n(NC(=O)C(c3ccccc3)c3ccccc3)c(=S)[nH]c2c1", "Potency": "inconclusive [inhibitor, partial curve]"},
      {"smiles": "Cc1nnc(SCC(=O)c2ccc([N+](=O)[O-])cc2)s1", "Potency": "inconclusive [inhibitor, single point]"},
      {"smiles": "Cc1c(C(=O)/C=C/c2ccccc2F)c2cc(O)ccc2n1C", "Potency": "inconclusive [inhibitor, single point]"},
      {"smiles": "O=C1CC(c2ccccc2)C(C(=O)Nc2ccccc2F)N1", "note": "(configuration not stated)", "Potency": "inconclusive [inhibitor, partial curve]"},
      {"smiles": "Cc1cc(C)nc(Nc2n[nH]c(COc3cccc4ccccc34)n2)n1", "Potency": "active: 3.26 µM"},
      {"smiles": "CCOC(=O)C1=CC[C@H]2c3c(c4ccccc4n3C)C(=O)C1N2S(=O)(=O)c1ccc(C)cc1", "Potency": "inconclusive [inhibitor, single point]"},
      {"smiles": "CCc1cccc2c(SC(C)C(=O)NCC3CCCO3)nc(-c3ccccc3)nc12", "note": "(configuration not stated)", "Potency": "inconclusive [inhibitor, partial curve]"},
      {"smiles": "O=C(NCc1ccc(F)cc1)c1cc(C2CCCCN2C(=O)c2ccc(Cl)cc2)on1", "note": "(configuration not stated)", "Potency": "active: 14.6 µM"},
      {"smiles": "Cc1cc2c(cc1S(=O)(=O)N1CCc3ccccc31)NC(=O)CO2", "Potency": "inconclusive [inhibitor, single point]"}
    ]}
  ]
}
